Data published in patent publication US8623416B2 (priority 2009, dated 2014).

Details: hamster, in vivo, sc

squalamine phosphate
response of animals immediately following subcutaneous administration: identical to those observed following administration of the vehicle buffer
